Reference: PubChem BioAssay AID1745845 (National Center for Advancing Translational Sciences (NCATS), 2022)
Where “and” joins values, the source holds several entries; their conditions need not be identical. Equal values may be shown once. Screen size: about 360,000 compounds; about 2,600 (0.72%) were called active. The inconclusive results got no clear call from the source; some entries with a clear call stand among them for comparison. Calls come from the whole dose curve; as a rule, active = well fitted inhibition curve with a large enough effect; inconclusive = small, poorly fitted or top-dose-only effect; inactive = no such curve, though single readings can be large or run the other way. A potency beside an inconclusive call is a rough fit, not a confirmed value.

assay: Primary qHTS for Inhibitors of ATXN expression; conditions: HEK-293 ATXN2-luciferase reporter, luminescence, 24 h; activity change, negative = inhibition: at 57 µM (top of the series); note: nearly all actives have a fitted effect of over 55% in size
Method in brief: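 ATXN2-luciferase reporter cells (luciferase flanked by upstream and downstream ATXN2 gene portions) were treated 24 h at 37 °C with compounds at up to 57 uM. SteadyGlo luminescence gave expression; GF-AFC fluorescence gave viability.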
% is set by controls: 0 for no effect and ±100 for the full control effect; potency is the fitted concentration of half-maximal effect; tags give direction and shape of the fitted curve.

| Compound | Potency | activity change, negative = inhibition |
| --- | --- | --- |
| Cc1cc(N2CCCN(C)CC2)nc2cc(Cl)ccc12 | inconclusive: 39.8 µM [inhibitor, single point] | – |
| O=C(Nc1cccc(OC(F)(F)F)c1)C1Cc2c(-c3ccco3)ccnc2O1 (configuration not stated) | inconclusive: 22.4 µM [inhibitor, partial curve, poor fit] | – |
| O=C(N/N=C/c1ccc(-c2ccc([N+](=O)[O-])cc2)o1)[C@H]1C[C@@H]1c1ccccc1 | – | inactive: -2.02% |
| Brc1ccc2c(c1)OCCOCCOc1cc(Br)ccc1OCCOCCOCCO2 | active: 15.8 µM | – |
| CCOC(=O)c1ccc(N2C(=O)c3n[nH]c(-c4ccco4)c3C2c2ccc(C)cc2)cc1 (configuration not stated) | inconclusive: 39.8 µM [inhibitor, single point] | – |
| Cc1cc(C)cc(NC(=O)CCS(=O)(=O)c2cccc3nsnc23)c1 | – | inactive: 2.75% |
| COc1ccc2[nH]c3c(c2c1)CCN1C(=O)C(CC(=O)NCCC2=CCCCC2)C[C@H](C(=O)N(C(C)C)C(C)C)[C@@]31C (some centres not stated) | inconclusive: 39.8 µM [inhibitor, single point] | – |
| Cc1cc(C)cc(OCC(=O)Nc2nc(-c3ccccn3)cs2)c1 | – | inactive: -27.2% |
| CN1CCN(c2ccc(Cl)cc2NC(=O)/C=C/c2cccc(F)c2)CC1 | inconclusive: 12.6 µM [inhibitor, partial curve] | – |
| CC(=O)N1CCc2cc(S(=O)(=O)NCCN3CCC(C)CC3)ccc21 | – | inactive: -2.36% |
| Cc1ccc2[nH]c(=O)c(CN(CC3CCCO3)C(=O)c3ccncc3)cc2c1 (configuration not stated) | – | inactive: 4.76% |
| CC1CCN(S(=O)(=O)c2ccc(C(=O)Nc3nnc(-c4ccccn4)o3)cc2)CC1 | – | inactive: -16.5% |
| c1ccc(-c2nnc(NC3=NCCC3)o2)cc1 | inconclusive: 37.7 µM [inhibitor, single point] | – |
| O=[N+]([O-])c1ccc(N2CCCC2)cc1N1CCCC1 | – | inactive: -0.588% |
| C=CCn1c(C)cc(-c2csc(NCC)n2)c1C | – | inconclusive: -56.1% [inhibitor] |
| CC(C)(CC(=O)N1CCN(c2ccc(Cl)cc2)CC1)CC1=NS(=O)(=O)c2ccccc2N1 | inconclusive: 22.4 µM [inhibitor, single point] | – |
| O=C(NCCSc1c(-c2ccccc2)[nH]c2ccccc12)c1cc2ccccc2oc1=O | inconclusive: 15.8 µM [inhibitor, partial curve, poor fit] | – |
| CCN(CC)S(=O)(=O)c1ccc(C)c(NC(=O)COc2ccc(Cl)cc2Br)c1 | inconclusive: 33.6 µM [inhibitor, partial curve, poor fit] | – |
| O=c1[nH]c(=O)n(-c2ccc(F)cc2)c2c1C(C(F)(F)F)(C(F)(F)F)N=C(c1ccc(F)cc1)N2 | inconclusive: 17.8 µM [inhibitor, partial curve] | – |
| CCCOc1ccc(CNC(=S)NCc2ccc(OC(C)C)cc2)cc1 | inconclusive: 7.08 µM [inhibitor, single point] | – |
| CCN1/C(=C/C(C)=C/c2sc3ccccc3[n+]2CC)Sc2ccccc21 | inconclusive: 631 nM [inhibitor, partial curve, poor fit] and inconclusive: 17.8 µM [inhibitor, partial curve, poor fit] | – |
| Cc1c(C(=O)Nc2ccc(C(=O)O)cc2)nnn1-c1ccccc1 | inconclusive: 11.2 µM [inhibitor, single point] | – |
| O=C(Nc1cccc(NC(=O)c2ccccc2F)c1)c1ccccc1 | inactive | – |
| CCN(Cc1nc2ccccc2c(=O)[nH]1)C(=O)COc1ccccc1-c1ccccc1 | – | inactive: -21.2% |

| Compound | Potency | activity change, negative = inhibition |
| --- | --- | --- |
| Cc1ccc(S(=O)(=O)N2CCCc3cc(NS(=O)(=O)c4cc(F)ccc4F)ccc32)cc1 | inconclusive: 28.2 µM [inhibitor, single point] | – |
| Cc1ccc(CC2(C)C(=O)Nc3c(Cl)ccc(Cl)c32)cc1 (configuration not stated) | – | inactive: 0% |
| CN1CCN(CCCNC(=O)c2cc3c(=O)n(C)c4ccccc4c3s2)CC1 | – | inactive: -15.4% |
| NS(=O)(=O)c1ccc(CCNC(=O)COC(=O)/C=C/c2cc(Br)ccc2F)cc1 | inconclusive: 6.31 µM [inhibitor, partial curve] | – |
| C=CCOC(=O)C(=O)/C=C/c1ccc2c(c1)Cc1ccccc1-2 | – | inactive: -32.8% |
| COc1cc(-c2nnc(SCC(=O)N3CCOCC3)o2)cc(OC)c1OC | – | inactive: -7.27% |
| Cn1c(=O)c2[nH]c(C3CC=CCC3)nc2n(C)c1=O (configuration not stated) | – | inactive: 20.4% |
| S=C(NCCN1CCOCC1)Nc1ccc(-c2nc3ccccc3[nH]2)cc1 | – | inactive: -21.4% |
| CC(NO)C(C)(C)NO (configuration not stated) | inconclusive: 35.5 µM [inhibitor, partial curve, poor fit] | – |
| Cc1cccc(-c2nc3ccccc3n2Cc2ccccc2)c1 | inconclusive: 39.8 µM [inhibitor, single point] | – |
| CCN(CC)S(=O)(=O)c1ccc(N2CCN(C)CC2)c(NC(=O)Nc2ccc(C)cc2)c1 | – | inactive: -11.6% |
| O=C(Nc1ccccc1N1CCCC1)c1cccc(F)c1 | – | inactive: 1.2% |
| COc1ccccc1CNc1nc(NCc2ccc(NC(C)=O)cc2)c2sccc2n1 | inconclusive: 31.6 µM [inhibitor, single point] | – |
| Cc1nnc(SC(C)C(=O)NC2CCCCC2)s1 (configuration not stated) | – | inactive: -8% |
| CC(C)c1ccc(NC(=O)Nc2nc(C(N)CCc3ccccc3)cs2)cc1 (configuration not stated) | active: 28.2 µM | – |
| CCOC(=O)N1CCC(NC(=O)c2cc3c(-c4ccc(OC)c(OC)c4)nn(C)c3s2)CC1 | – | inactive: -15.7% |
| COc1ccc(CNC(=S)NC2CCCCC2)cc1 | – | inactive: 4.64% |
| O=C(C1CCC1)N1CCCc2cc(S(=O)(=O)N3CCN(c4ccccc4)CC3)ccc21 | inconclusive: 31.6 µM [inhibitor, single point] | – |
| CCc1nnc(NC(=O)c2ccc(S(=O)(=O)N(CC(C)C)CC(C)C)cc2)o1 | inconclusive: 20 µM [inhibitor, partial curve, poor fit] | – |
| COc1ccc(OC)c(-c2cc(C(=O)Nc3c(C)nn(Cc4ccccc4Cl)c3C)no2)c1 | – | inactive: -19.9% |
| O=C(Nc1nnc(C(F)(F)F)s1)c1ccc(Br)s1 | inconclusive: 37.7 µM [inhibitor, single point] | – |
| CCOC(=O)c1c(C)oc2c(F)c(F)c(F)c(F)c2c1=O | active: 31.6 µM | – |
| CCc1ccccc1OCC(=O)Nc1cccc(S(=O)(=O)NC2=NCCCCC2)c1 | inconclusive: 39.8 µM [inhibitor, single point] | – |
